According to US12472180B2, “Combinations for treatment of NAFLD/NASH and related diseases” (Pfizer Inc., priority 2020, dated 2025):

Columns and labels:
Type in all cases: in vivo, human
[1] = test system: adults with non-alcoholic fatty liver disease (NAFLD); assay: Phase 2A study: other fasting serum lipids and apolipoproteins; conditions: Day 42; Cmpd A 15 mg, Cmpd D 300 mg Q12H
Excerpt: A summary of the statistical analysis of percent change from baseline in other fasting serum lipid parameters on day 42—FAS is provided in Table 13.
The LS Mean (and 90% CIs) percent change from placebo on Day 42 are given.

[2] = test system: adults with non-alcoholic fatty liver disease (NAFLD); assay: Phase 2A study: liver function tests; conditions: 6 weeks; Cmpd A 15 mg, Cmpd D 300 mg Q12H
Excerpt: The LS Mean (and 90% CIs) percent change from placebo on Day 42 are given. Table 15 provides a statistical analysis of percent change from baseline in liver function tests on Day 42—FAS. […] FIG. 27a provides the plot for alanine aminotransferase (ALT); FIG. 27b provides the plot for aspartate aminotransferase (AST); FIG. 27c provides the plot for alkaline phosphotate; and FIG. 27d provides the plot for gamma glutamyl transferase (GGT).

[3] = test system: adults with non-alcoholic fatty liver disease (NAFLD); assay: Phase 2A study: treatment emergent adverse events, safety and tolerability; conditions: all causalities, safety analysis set
[4] = test system: adults with non-alcoholic fatty liver disease (NAFLD); assay: Phase 2A study: platelets; conditions: Day 42, Cmpd A 15 mg, Cmpd D 300 mg Q12H
Excerpt: Table 17 provides a statistical analysis of percent change from baseline in platelets on Day 42—FAS.

Row | SMILES | LDL-Cholesterol % Change from Placebo, LS Mean [1] | GGT change from baseline over the study (in words) [2] | alkaline phosphatase course over the study (in words) [2] | Subjects discontinued from study due to adverse events, n (%) [3] | Subjects discontinued study drug due to AE and continue Study, n (%) [3] | Subjects with adverse events, n (%) [3] | Subjects with dose reduced or temporary discontinuation due to adverse events, n (%) [3] | Subjects with serious adverse events, n (%) [3] | Subjects with severe adverse events, n (%) [3] | Subjects discontinued from study due to adverse events, n (%) ([3]; listed as Cmpd A) | Platelets % Change from Placebo, LS Mean ([4]; listed as Cmpd A) | Subjects discontinued study drug due to AE and continue Study, n (%) ([3]; listed as Cmpd D) | Platelets % Change from Placebo, LS Mean ([4]; listed as Cmpd D)
1 | COc1cc(C(=O)N2CCC3(CC2)CC(=O)c2c(cnn2C(C)C)C3)cc(-c2ccc(C(=O)O)cc2)n1 [Compound A, 4-(4-(1-isopropyl-7-oxo-1,4,6,7-tetrahydrospiro[indazole-5,4′-piperidine]-1′-carbonyl)-6-methoxypyridin-2-yl)benzoic acid] | statistically significantly decreased | an increase observed | clear and statistically significant elevation | discontinued due to severe AE of TG elevation | 0 | 10 (34.5) | 1 (3.4) | 0 | 1 (3.4) | 1 (3.4) | −7.12 (−14.51, 0.91) % | – | –
2 | CCOc1cccnc1Oc1cncc(-c2ncc(C(=O)N[C@H]3CCOC3)cn2)c1 [Compound D, (S)-2-(5-((3-ethoxypyridin-2-yl)oxy)pyridin-3-yl)-N-(tetrahydrofuran-3-yl)pyrimidine-5-carboxamide] | numerical lowering trends | no significant change from baseline | clear and statistically significant decrease | 1 (3.6) | discontinued from study drug due to mild AE of creatine kinase and AST elevations | 10 (35.7) | 0 | 0 | 0 | – | – | 1 (3.6) | 7.50 (−0.99, 16.71) %
